Test results published in PubChem BioAssay AID1240 (Sanford-Burnham Center for Chemical Genomics, 2008).
Screen size: about 50,000 compounds; about 800 (1.6%) showed an effect of 50% or more. This is one part of the list.

What follows are compounds tested against Bcl-2-like protein 10 (Homo sapiens) (UniProt Q9HD36) (assay: TR3 peptide-Bcl-B binding displacers, biochemical primary FP assay, phenotype converters (AID 1240;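 also: 0% = Bcl-B with tracer peptide and DMSO and 100% = tracer peptide lacking Bcl-B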)). Details: GST-Bcl-B / FITC-TR3 peptide fluorescence polarization; stronger effect = higher value; compound at 3.75 mg/L.
Chain of UniProt Q9HD36 (Q9HD36 whole entry, looked up): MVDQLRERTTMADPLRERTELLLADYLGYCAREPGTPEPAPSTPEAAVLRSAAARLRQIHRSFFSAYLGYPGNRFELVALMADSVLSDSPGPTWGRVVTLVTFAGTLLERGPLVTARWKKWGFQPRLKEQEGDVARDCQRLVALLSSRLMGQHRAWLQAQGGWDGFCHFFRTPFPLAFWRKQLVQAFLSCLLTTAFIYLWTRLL

Structure (SMILES) | displacement [%]
Cc1ccc(S(=O)(=O)c2cc(O)ccc2O)cc1 | 8.2
COc1cccc(CN2CCN(C(=O)c3cccc(F)c3)CC2)c1OC | -8
CCOC(=O)c1c(NC(=O)C2C3C=CC(C3)C2C(=O)O)sc(C)c1C (centres undefined) | 2.9
CC1SC2(C(=O)Nc3ccccc32)N(c2ccccc2)C1=O (centres undefined) | 5.7
C=CCNCc1cccn1-c1sc2c(c1C#N)CCCC2 | -2.9
CCOc1ccc(C(=O)Nc2cc(-c3nc4ccccc4o3)ccc2OC)cc1Br | -12.6
Cc1nc(N(CCC#N)CCC#N)sc1C(C)(C)C | -5.3
COc1ccc(OC)c(C2c3c(-c4ccccc4)n[nH]c3C(=O)N2c2ccccc2)c1 (centres undefined) | 0.7
O=Cc1cccc(OCc2ccccc2F)c1 | -0.4
CC1=NN(c2cccc(C(=O)O)c2)C(=O)/C1=C\c1cccs1 | 6.2
COc1ccc(Cl)cc1NC(=O)CN(c1ccc(C)cc1)S(=O)(=O)c1ccc(F)cc1 | 24.1
Cc1ccc(Cl)cc1NC(=O)COc1ccc2ccccc2c1 | -4.8
Cc1ccc(C)c(N=C(NO)C(=Nc2cc(C)ccc2C)NO)c1 | -17.3
CCOC(=O)c1c(NC(=S)NC(=O)/C=C/c2cccs2)sc(C)c1C | 2.4
COc1cccc(NC(=O)CSc2nc3ccccc3o2)c1 | 10.3
O=C(Nc1nc(C23CC4CC(CC(C4)C2)C3)cs1)c1ccc(F)cc1 | -6.9
COc1ccc(N(CC(=O)Nc2ccc(I)cc2)S(C)(=O)=O)c(OC)c1 | -7
CC1=C(C(=O)Nc2ccccc2)C(c2ccc3c(c2)OCO3)NC(=S)N1 (centres undefined) | -5.7
CCOC(=O)N1CCN(C2CC(=O)N(c3cccc(Br)c3)C2=O)CC1 (centres undefined) | 2.1
O=C(c1nn2c(c1Br)NC(c1cccs1)CC2C(F)(F)F)N1CCCc2ccccc21 (centres undefined) | 2.4
O=C(COc1ccc(Br)cc1)Nc1ccc2oc(-c3ccccc3F)nc2c1 | 5.1
O=C1S/C(=C/c2ccccc2F)C(=O)N1CNc1ccc(I)cc1 | -0.6

Structure (SMILES) | displacement [%]
O=C(CCNC(=O)/C(=C\c1ccco1)NC(=O)c1ccco1)OCc1ccccc1 | 6.1
CC(=O)C1=C(C)NC(=S)NC1c1ccc(C)cc1 (centres undefined) | -10.3
Cc1ccc(CSCCNC(=O)CN(c2ccc(C)cc2)S(=O)(=O)c2ccc(F)cc2)cc1 | 2.4
COc1cccc(C=C2C=C(C(C)(C)C)C(=O)C(C(C)(C)C)=C2)c1OC | -11.5
CCOC(=O)C1=CS/C(=C2/C(=S)C(C)(C)Nc3c(OCC)cccc32)S1 | 1.3
COc1ccccc1-c1c(C(F)(F)F)oc2c(CN(C)C)c(O)ccc2c1=O | 11.4
CCOC(=O)C(CCc1nnc(N)s1)C(=O)OCC | 4.2
O=C1C2C3c4ccccc4C(c4ccccc43)C2C(=O)N1C12CC3CC(CC(C3)C1)C2 (centres undefined) | 6.8
COc1ccc(Cl)cc1C(=O)NCc1ccccn1 | 10.2
COCCOC(=O)C1=C(C)NC2=C(C(=O)CCC2)C1c1cccc(Cl)c1 (centres undefined) | 7.5
Cc1cccc(C(=O)N2CCN(c3cc(C)c(C#N)c4nc5ccccc5n34)CC2)c1 | 8.9
CCN(CC)c1ccc(C=Nc2ccccc2C(=O)Nc2ccccc2)c(O)c1 | -4
COc1ccccc1C(=O)NNC(=O)COc1ccccc1Cl | -8.7
OC(c1ccc2c(c1)OCO2)c1nc2ccccc2n1Cc1ccccc1 (centres undefined) | -5.3
O=C(c1c(Cl)cccc1Cl)N1CCOCC1 | -2.6
COc1cc(C(C)=O)ccc1OC(=O)CN1C(=O)c2ccccc2C1=O | 0.4
CS(=O)(=O)N(Cc1ccc(C(=O)N2CCOCC2)cc1)c1ccccc1 | -2.7
Cc1ccc(N2C(=O)CSC2c2ccc([N+](=O)[O-])cc2)cc1 (centres undefined) | -0.4
Oc1cc(OCc2ccccc2Cl)ccc1-c1[nH]ncc1-c1ccccc1 | 77.4
CC(=O)Nc1c(O)nc(SCc2ccc([N+](=O)[O-])cc2)[nH]c1=O | 5.3
CN(C)CCCN1C(=O)CSC1c1ccc(Br)cc1 (centres undefined) | 8.4
O=c1c(/C=N/N2CCOCC2)c(C(F)(F)F)[nH]n1-c1nc2ccccc2s1 | -6.4

Structure (SMILES) | displacement [%]
O=C(Nc1cc(O)ccc1C(=O)O)c1cccc(Br)c1 | 12.4
CCCCSc1nc2ccccc2c(=O)n1Cc1ccccc1 | -9.1
Cc1cc2c3c(c1)C1C=CCC1C(c1cccc([N+](=O)[O-])c1)N3CC1CC=CC21 (centres undefined) | 13.6
Cc1cccc(NC(=O)C2(c3ccccc3)CCCC2)n1 | -8.3
CC(=O)N(C)c1ccc(N2CCCCC2)c2c1C(=O)c1ccccc1C2=O | 9.4
CCc1ccccc1N(CC(=O)NCC(C)C)S(C)(=O)=O | -4.4
CC(=O)C(C(C)=O)C(SCc1ccccc1)c1ccccc1 (centres undefined) | 7.9
Cn1c(=O)c2c3c(sc2n2c(SCC(=O)c4ccc(Br)cc4)nnc12)CCC3 | -8.3
O=C(/C=C/c1ccc([N+](=O)[O-])cc1)NC1CCCCC1 | -8.7
CCC(C(=O)NCc1ccccc1)c1ccccc1 (centres undefined) | 7.4
O=C(Nc1ccccn1)[C@@H]1C2C=CC(C2)[C@@H]1C(=O)O (some centres undefined) | -9.3
CCOc1ccc(NC(=S)NC(NC(=O)c2cccc(I)c2)C(Cl)(Cl)Cl)cc1 (centres undefined) | 17.7
Cc1c(Br)c(C(F)(F)F)nn1CC(=O)Nc1cccc(O)c1 | -2.8
CCOc1ccccc1N(CC(=O)Nc1cc(Cl)cc(Cl)c1)S(=O)(=O)c1ccccc1 | -4.5
COc1ccc(OCC(=O)N/N=C\c2cc(O)c(O)c(Br)c2)c(Br)c1 | 13.2
O=C(Nc1cccc(Br)c1)C(=O)NC1CCCC1 | 5.2
CC1=C(C(=O)Nc2ccccc2)C(c2cccc(O)c2)NC(=S)N1 (centres undefined) | -2.8
CC(=O)C(Sc1ccccc1[N+](=O)[O-])C(C)=O | 1
CCn1c(=O)c(C(=O)Nc2ccccc2O)c(O)c2ccccc21 | 6.5
COc1ccc(N(CC(=O)N2CCCCC2)S(=O)(=O)c2ccccc2[N+](=O)[O-])c(OC)c1 | 10
O=C(/C=C/Nc1cccc(O)c1)c1ccc(Cl)cc1 | -5.4
COc1cc(NC(=O)c2nn3c(C(F)(F)F)cc(-c4ccccc4)nc3c2Br)c(OC)cc1Cl | -0.2

Structure (SMILES) | displacement [%]
CC(NC(=O)c1ccccc1)C12CC3CC(CC(C3)C1)C2 (centres undefined) | 39.3
O=C1/C(=C/c2ccccc2[N+](=O)[O-])SC(=S)N1Cc1ccco1 | 16.5
Cc1cccc(C)c1NC(=O)CSc1nc2ccccc2[nH]1 | 9.4
COc1ccc(N2C(=O)c3cccc4c([N+](=O)[O-])ccc(c34)C2=O)cc1 | 12.4
O=C(CSCc1cccc(Br)c1)NC1CCCCC1 | -3.5
CN1CCc2c(sc3c2C(=O)NC(/C=C\c2ccc([N+](=O)[O-])cc2)N3)C1 (centres undefined) | 24
CC1(C)CC(=O)C2=C(C1)NC1=C(C(=O)CC(C)(C)C1)C2c1ccc(Br)cc1 | 15.9
COCCNC(=O)C(C)Sc1ccc(Cl)cc1 (centres undefined) | -1.3
Cc1no[n+]([O-])c1COc1ccccc1/C=C1\N=C(c2ccccc2)OC1=O | -3.2
CSc1ccccc1C(=O)O/N=C1/C(=O)N(C)c2ccccc21 | 2.5
Cc1cccc(-n2c(O)c(C=NCc3ccc(F)cc3)c(=O)[nH]c2=O)c1 | 38.8
CC(=O)Nc1ccc(NC2=C(Cl)C(=O)c3ccccc3C2=O)cc1 | 7.1
CC1=C(C(=O)OCc2ccccc2)C(c2ccsc2)NC(=O)N1C (centres undefined) | 1.5
Cc1cc(/C=C2/C(=O)NC(=O)N(c3ccccc3)C2=O)c(C)n1-c1ccccc1 | 30.8
O=C1C(Nc2ccccc2)=CC(c2cccc(F)c2)N1c1ccccc1 (centres undefined) | 14.1
CC(C)(C)NC(=O)c1cc(NC(=O)c2ccco2)cc(NC(=O)c2ccco2)c1 | -4.7
COc1ccc(N2C(=O)/C(=C\c3cc(OC)ccc3OC)SC2=S)cc1 | 28.3
CC1=C(C#N)c2nc(N)c(C#N)c(C)c2/C1=C/c1ccc(-c2cccc(Cl)c2Cl)o1 | 2.5
O=C(NCCCCOc1ccccc1)C(O)(c1ccccc1)c1ccccc1 | -4.9
COc1ccc(C(=O)NCc2ccc3c(c2)OCO3)c(OC)c1 | -2.2
COc1ccc(C2NC(=S)NC(C)=C2C(=O)OCCOc2ccccc2)cc1 (centres undefined) | -22.9
N#C/C(=C/c1ccccc1F)C(=O)Nc1cccc(Br)c1 | -0.7

Structure (SMILES) | displacement [%]
Cc1ccc(Cl)cc1NC(=O)CSc1nc2ccccc2[nH]1 | -5.3
COC(=O)c1sc2ccccc2c1N | 5
O=C(COc1ccc(Br)cc1)Nc1ccc(Cl)cc1 | -4
O=C(NCC1CCCO1)/C(=C\c1ccco1)NC(=O)c1ccccc1 (centres undefined) | 16.9
Cc1ccc(N=C2NC(=O)CS2)cc1 | 1.2
O=C(Nc1ccc([N+](=O)[O-])cn1)c1ccc(F)cc1 | -0.2
O=C(N/N=C/c1cc(Br)cc(Br)c1O)c1ccc(N2CCCC2=O)cc1 | -0.6
CC1C(C(=O)N(C=O)c2ccc(Br)cc2)C2C=CC1C21CC1 (centres undefined) | 11.2
CCCC(=O)N1CCN(c2cc(N3CCC(C)CC3)c(F)cc2[N+](=O)[O-])CC1 | -8.1
CC(Oc1ccccc1)C(=O)NCc1cccnc1 (centres undefined) | 3.9
Cc1ccc(S(=O)(=O)C/N=C(/NC(=S)N(c2ccccc2)c2ccccc2)c2ccccc2)cc1 | 0.8
CC(=O)Nc1ccc(S(=O)(=O)NC(=O)C23CC4CC(CC(C4)C2)C3)cc1 | 0.8
c1ccc(OCCSc2nc3ccccc3s2)cc1 | -0.6
Cc1c(Cl)c(C(F)(F)F)nn1CC(=O)N1CCN(c2ccc(F)cc2)CC1 | 5.7
Clc1cccc(CN2CCN(C3CCN(Cc4ccccc4)CC3)CC2)c1 | -20.1
CCOc1cccc(=O)c2c(C)[nH]c(C)c12 | 40.5
Cc1cc(C)cc(NC(=O)c2ccco2)c1 | 12.3
CCOc1cc(C(=O)Nc2ccc(C(=O)OC)cc2)cc(OCC)c1OCC | 3.3
CCC(=O)Nc1nnc(COc2ccccc2)s1 | -1.6
COC(=O)C(=C/C=C/N(C1CCCCC1)C1CCCCC1)C(=O)OC | 1.1
COc1ccc(/C=C2\SC(=S)N(CC(=O)Nc3ncc(Cc4cccc([N+](=O)[O-])c4)s3)C2=O)cc1OC | 9.7
